{"source": "the BET-seq Pho4 binding data (Le et al. 2018)", "note": "The other results are listed elsewhere or left out. Values were computed here from the reads of four pooled replicates and scatter widely."}
{"target": "T1, Pho4 (S. cerevisiae) (UniProt P07270)", "T1 sequence": "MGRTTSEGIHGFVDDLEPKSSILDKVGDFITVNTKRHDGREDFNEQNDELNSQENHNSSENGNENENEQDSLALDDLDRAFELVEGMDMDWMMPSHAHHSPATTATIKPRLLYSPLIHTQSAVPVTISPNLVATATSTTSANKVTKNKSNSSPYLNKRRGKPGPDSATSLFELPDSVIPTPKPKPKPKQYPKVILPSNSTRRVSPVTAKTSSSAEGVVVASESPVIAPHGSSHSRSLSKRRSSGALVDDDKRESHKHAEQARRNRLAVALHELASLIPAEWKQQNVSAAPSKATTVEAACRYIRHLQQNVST", "assay": "relative binding free energy (BET-seq); higher = weaker binding", "settings": "reference: library average", "units": {"relative binding free energy": "kcal/mol"}}
{"sequence": "GCGGTCACGTGTGGGC", "relative binding free energy": 0.18}
{"sequence": "GCCGTCACGTGTTGTT", "relative binding free energy": 0.21}
{"sequence": "TGAGTCACGTGTTGCG", "relative binding free energy": 0.17}
{"sequence": "AATCACACGTGGGGGC", "relative binding free energy": 0.09}
{"sequence": "GTTTTCACGTGGAGGC", "relative binding free energy": 0.26}
{"sequence": "GTGGACACGTGAGCGC", "relative binding free energy": 0.35}
{"sequence": "AATGTCACGTGCCGGG", "relative binding free energy": -0.03}
{"sequence": "TGTTCCACGTGGATGG", "relative binding free energy": -0.05}
{"sequence": "AGGTCCACGTGTTGTG", "relative binding free energy": -0.03}
{"sequence": "GTAGACACGTGCTTGG", "relative binding free energy": -0.14}
{"sequence": "TTGGTCACGTGTGTGT", "relative binding free energy": 0.24}
{"sequence": "GTGCACACGTGGTTTA", "relative binding free energy": 0.02}
{"sequence": "GGCCTCACGTGGTGTG", "relative binding free energy": 0.19}
{"sequence": "CGGCACACGTGGTGGG", "relative binding free energy": -0.13}
{"sequence": "TTAGCCACGTGGAGTA", "relative binding free energy": -0.06}
{"sequence": "CGCGGCACGTGAATGG", "relative binding free energy": 0.19}
{"sequence": "TGAATCACGTGGTATT", "relative binding free energy": 0.09}
{"sequence": "GTTGTCACGTGAAATA", "relative binding free energy": 0.28}
{"sequence": "TAAAACACGTGATGGG", "relative binding free energy": 0.24}
{"sequence": "TGCTCCACGTGGGGTG", "relative binding free energy": -0.21}
{"sequence": "TCGTCCACGTGGAGTG", "relative binding free energy": -0.03}
{"sequence": "TGGGTCACGTGGCATC", "relative binding free energy": 0.12}
{"sequence": "GATGGCACGTGTAGGG", "relative binding free energy": 0}
{"sequence": "TCAGCCACGTGTTTGT", "relative binding free energy": -0.01}
{"sequence": "TTGGTCACGTGGTAAT", "relative binding free energy": 0.12}
{"sequence": "TTTTTCACGTGTGAAC", "relative binding free energy": 0.3}
{"sequence": "GGTAACACGTGCATTT", "relative binding free energy": 0.11}
{"sequence": "TGGGACACGTGGTTGC", "relative binding free energy": -0.03}
{"sequence": "CTAGTCACGTGTTTGT", "relative binding free energy": 0.04}
{"sequence": "TGCGGCACGTGTGGGG", "relative binding free energy": -0.06}
{"sequence": "GAATTCACGTGTAATG", "relative binding free energy": 0.28}
{"sequence": "TAGCGCACGTGGGATA", "relative binding free energy": -0.18}
{"sequence": "TTGGTCACGTGAGCGG", "relative binding free energy": 0.17}
{"sequence": "GGTCTCACGTGGGCGG", "relative binding free energy": 0.11}
{"sequence": "TCATGCACGTGTGGGG", "relative binding free energy": 0.03}
{"sequence": "ATTTGCACGTGCAAGT", "relative binding free energy": -0.08}
{"sequence": "TTGTGCACGTGACAGT", "relative binding free energy": 0.04}
{"sequence": "AGATACACGTGGTGTT", "relative binding free energy": -0.07}
{"sequence": "CTAGTCACGTGTAGGG", "relative binding free energy": 0}
{"sequence": "AGTATCACGTGGGTCT", "relative binding free energy": -0.07}
{"sequence": "TGAAACACGTGGTAAT", "relative binding free energy": 0.01}
{"sequence": "AATCACACGTGGGGTT", "relative binding free energy": 0.01}
{"sequence": "ATAGCCACGTGTGGTG", "relative binding free energy": -0.08}
{"sequence": "GGATGCACGTGTTTCT", "relative binding free energy": 0.2}
{"sequence": "CTGTTCACGTGTATGC", "relative binding free energy": 0.43}
{"sequence": "TGATTCACGTGGGAGC", "relative binding free energy": 0.21}
{"sequence": "ATTGACACGTGGTAAG", "relative binding free energy": -0.16}
{"sequence": "GGGTTCACGTGGATTC", "relative binding free energy": 0.53}
{"sequence": "TAATGCACGTGATTGT", "relative binding free energy": 0.18}
{"sequence": "TTTAACACGTGTTAGT", "relative binding free energy": -0.05}
{"sequence": "CGTAACACGTGTGTGT", "relative binding free energy": 0.01}
{"sequence": "AAATGCACGTGAGAGT", "relative binding free energy": 0.28}
{"sequence": "TTTTGCACGTGGATTT", "relative binding free energy": 0.12}
{"sequence": "ACGGTCACGTGAGGAG", "relative binding free energy": 0.33}
{"sequence": "TATAGCACGTGGGTTT", "relative binding free energy": -0.14}
{"sequence": "TTGGGCACGTGTCTCG", "relative binding free energy": 0.03}
{"sequence": "GCATGCACGTGTGTGT", "relative binding free energy": 0.02}
{"sequence": "TTACGCACGTGTGTAT", "relative binding free energy": -0.02}
{"sequence": "CTTTTCACGTGTAAAT", "relative binding free energy": 0.33}
{"sequence": "TAATTCACGTGCAGTT", "relative binding free energy": 0.32}
{"sequence": "TGTTGCACGTGCGGGA", "relative binding free energy": -0.06}
{"sequence": "TTGGACACGTGCGGGG", "relative binding free energy": -0.04}
{"sequence": "TTAAGCACGTGTTGTA", "relative binding free energy": -0.07}
{"sequence": "GTTAGCACGTGTCTTC", "relative binding free energy": 0.24}
{"sequence": "AATGTCACGTGTGGCA", "relative binding free energy": 0.2}
{"sequence": "TTAGACACGTGTACAT", "relative binding free energy": 0.18}
{"sequence": "TTGGACACGTGAGTGC", "relative binding free energy": 0.29}
{"sequence": "AATTGCACGTGTTCTG", "relative binding free energy": -0.06}
{"sequence": "TGACTCACGTGTGAGG", "relative binding free energy": 0.14}
{"sequence": "TACGTCACGTGTCGGT", "relative binding free energy": 0.15}
{"sequence": "GGTAACACGTGGGCGG", "relative binding free energy": -0.12}
{"sequence": "TGTTGCACGTGGCTTT", "relative binding free energy": -0.07}
{"sequence": "GTCCGCACGTGGGGAT", "relative binding free energy": -0.2}
{"sequence": "TGTTTCACGTGTCGTT", "relative binding free energy": 0.38}
{"sequence": "GGTGTCACGTGCTAGA", "relative binding free energy": 0.02}
{"sequence": "ATTTTCACGTGTATTC", "relative binding free energy": 0.19}
{"sequence": "AGTGGCACGTGGTACC", "relative binding free energy": -0.16}
{"sequence": "AGGTTCACGTGTATTT", "relative binding free energy": 0.28}
{"sequence": "GTTTGCACGTGGTGCT", "relative binding free energy": -0.05}
{"sequence": "TCGATCACGTGAAGTT", "relative binding free energy": 0.33}
{"sequence": "GTCTACACGTGATTGG", "relative binding free energy": 0.23}
{"sequence": "GGCTTCACGTGATGGA", "relative binding free energy": 0.37}
{"sequence": "GGTTACACGTGAGCGG", "relative binding free energy": 0.42}
{"sequence": "TTGTACACGTGGGGGT", "relative binding free energy": 0.01}
{"sequence": "TTTCTCACGTGTGGGA", "relative binding free energy": 0.25}
{"sequence": "CATTTCACGTGGAAGT", "relative binding free energy": 0.32}
{"sequence": "ACGGTCACGTGAAATG", "relative binding free energy": 0.39}
{"sequence": "ACAAGCACGTGTGGTT", "relative binding free energy": 0.04}
{"sequence": "CATGTCACGTGTGGTC", "relative binding free energy": 0.2}
{"sequence": "GGAGACACGTGACTGG", "relative binding free energy": 0.1}
{"sequence": "GTTTGCACGTGTTCTT", "relative binding free energy": 0.1}
{"sequence": "ATGTACACGTGGAATT", "relative binding free energy": 0.19}
{"sequence": "CTCGTCACGTGTTTAG", "relative binding free energy": 0.09}
{"sequence": "TTTGACACGTGGTTAC", "relative binding free energy": 0}
{"sequence": "TGCGGCACGTGTAGAG", "relative binding free energy": 0.08}
{"sequence": "GGATTCACGTGGCAGG", "relative binding free energy": 0.22}
{"sequence": "AACAGCACGTGTGGTA", "relative binding free energy": 0}
{"sequence": "CGGAGCACGTGGGCGT", "relative binding free energy": -0.28}
{"sequence": "AGACGCACGTGGTTAG", "relative binding free energy": -0.08}
{"sequence": "TGCTTCACGTGGTTTG", "relative binding free energy": 0.22}
{"sequence": "TTATGCACGTGCGCTT", "relative binding free energy": -0.05}
{"sequence": "TGGATCACGTGCGGTT", "relative binding free energy": 0.14}
{"sequence": "TTCGGCACGTGTGGCA", "relative binding free energy": -0.05}
{"sequence": "CGGGGCACGTGGCAAG", "relative binding free energy": -0.19}
{"sequence": "CGTTGCACGTGGATTA", "relative binding free energy": -0.06}
{"sequence": "TGGGCCACGTGGTGTA", "relative binding free energy": -0.22}
{"sequence": "TATTCCACGTGGTTAG", "relative binding free energy": 0.1}
{"sequence": "TAAATCACGTGGGAAG", "relative binding free energy": 0.11}
{"sequence": "CCTGGCACGTGAGGGA", "relative binding free energy": 0.13}
{"sequence": "GGTTTCACGTGATTAT", "relative binding free energy": 0.39}
{"sequence": "GTTTTCACGTGGATGC", "relative binding free energy": 0.21}
{"sequence": "ATTGGCACGTGGGTAA", "relative binding free energy": -0.21}
{"sequence": "AGTGGCACGTGTATGC", "relative binding free energy": -0.04}
{"sequence": "AGGTGCACGTGTTATA", "relative binding free energy": -0.04}
{"sequence": "GTGGTCACGTGTACGG", "relative binding free energy": 0.19}
